Results reported in a compilation of properties of binary mixtures (doi:10.1016/j.molliq.2012.12.018).
Some of these densities may be calculated back from excess volumes.

Test: xn = mol fraction of the nth substance listed
Settings: 101 kPa

In the case of `CCCC[n+]1ccn(C)c1.[I-]` + O, the mass density (298.15 K, x1 = 0.0189) is reported as 1076 kg/m3, the mass density (298.15 K, x2 = 0.0191) is reported as 1483 kg/m3 and the mass density (298.15 K, x2 = 0.0497) is reported as 1481 kg/m3. For the same compound, the mass density (298.15 K, x2 = 0.0615) was 1480 kg/m3, the mass density (298.15 K, x2 = 0.1004) was 1478 kg/m3 and the mass density (298.15 K, x2 = 0.1512) was 1474 kg/m3. The mass density (298.15 K, x2 = 0.2503) was 1466 kg/m3, the mass density (298.15 K, x2 = 0.3009) was 1461 kg/m3 and the mass density (298.15 K, x2 = 0.399) was 1450 kg/m3. The mass density (298.15 K, x2 = 0.5506) was 1425 kg/m3, the mass density (298.15 K, x2 = 0.5992) was 1415 kg/m3 and the mass density (298.15 K, x2 = 0.7007) was 1386 kg/m3. For the same compound, the mass density (298.15 K, x2 = 0.7507) was 1366 kg/m3, the mass density (298.15 K, x2 = 0.8034) was 1339 kg/m3 and the mass density (298.15 K, x2 = 0.8793) was 1277 kg/m3. For the same compound, the mass density (298.15 K, x2 = 0.9041) was 1247 kg/m3, the mass density (298.15 K, x2 = 0.9133) was 1233 kg/m3 and the mass density (298.15 K, x2 = 0.9323) was 1202 kg/m3. The mass density (298.15 K, x2 = 0.9518) was 1161 kg/m3, the mass density (298.15 K, x2 = 0.9684) was 1117 kg/m3 and the mass density (308.15 K, x1 = 0.0189) was 1073 kg/m3. The mass density (308.15 K, x2 = 0.0191) was 1479 kg/m3, the mass density (308.15 K, x2 = 0.0497) was 1477 kg/m3 and the mass density (308.15 K, x2 = 0.0615) was 1476 kg/m3. The mass density (308.15 K, x2 = 0.1004) was 1474 kg/m3, the mass density (308.15 K, x2 = 0.1512) was 1470 kg/m3 and the mass density (308.15 K, x2 = 0.3488) was 1452 kg/m3. The mass density (308.15 K, x2 = 0.399) was 1446 kg/m3, the mass density (308.15 K, x2 = 0.4988) was 1431 kg/m3 and the mass density (308.15 K, x2 = 0.5506) was 1421 kg/m3. It also gave a mass density (308.15 K, x2 = 0.6596) of 1394 kg/m3, a mass density (308.15 K, x2 = 0.7507) of 1361 kg/m3 and a mass density (308.15 K, x2 = 0.8034) of 1334 kg/m3. It also gave a mass density (308.15 K, x2 = 0.8793) of 1272 kg/m3, a mass density (308.15 K, x2 = 0.9041) of 1242 kg/m3 and a mass density (308.15 K, x2 = 0.9133) of 1229 kg/m3. It also gave a mass density (308.15 K, x2 = 0.9323) of 1198 kg/m3, a mass density (308.15 K, x2 = 0.9518) of 1157 kg/m3 and a mass density (308.15 K, x2 = 0.9684) of 1114 kg/m3.

In the case of `CCCCCCCCn1cc[n+](C)c1.[I-]` + O, the mass density (298.15 K, x1 = 0.019) is reported as 1045.1 kg/m3, the mass density (298.15 K, x2 = 0.019) is reported as 1232.9 kg/m3 and the mass density (298.15 K, x2 = 0.051) is reported as 1231.7 kg/m3. The mass density (298.15 K, x2 = 0.1558) was 1227.3 kg/m3, the mass density (298.15 K, x2 = 0.193) was 1225.6 kg/m3 and the mass density (298.15 K, x2 = 0.3858) was 1216.1 kg/m3. It also gave a mass density (298.15 K, x2 = 0.445) of 1212.8 kg/m3, a mass density (298.15 K, x2 = 0.529) of 1207.3 kg/m3 and a mass density (298.15 K, x2 = 0.6197) of 1199.8 kg/m3. The mass density (298.15 K, x2 = 0.854) was 1155.3 kg/m3, the mass density (298.15 K, x2 = 0.9047) was 1130.6 kg/m3 and the mass density (298.15 K, x2 = 0.939) was 1103.8 kg/m3. The mass density (298.15 K, x2 = 0.95) was 1092.2 kg/m3, the mass density (298.15 K, x2 = 0.9724) was 1061 kg/m3 and the mass density (298.15 K, x2 = 0.979) was 1049.1 kg/m3. The mass density (308.15 K, x1 = 0.019) was 1040.8 kg/m3, the mass density (308.15 K, x2 = 0.019) was 1224.7 kg/m3 and the mass density (308.15 K, x2 = 0.051) was 1223.4 kg/m3. The mass density (308.15 K, x2 = 0.0904) was 1221.7 kg/m3, the mass density (308.15 K, x2 = 0.1558) was 1218.8 kg/m3 and the mass density (308.15 K, x2 = 0.193) was 1217.1 kg/m3. It also gave a mass density (308.15 K, x2 = 0.2071) of 1216.4 kg/m3, a mass density (308.15 K, x2 = 0.3858) of 1207.5 kg/m3 and a mass density (308.15 K, x2 = 0.529) of 1198.8 kg/m3. For the same compound, the mass density (308.15 K, x2 = 0.6197) was 1191.5 kg/m3, the mass density (308.15 K, x2 = 0.7373) was 1176.8 kg/m3 and the mass density (308.15 K, x2 = 0.854) was 1148 kg/m3. For the same compound, the mass density (308.15 K, x2 = 0.9047) was 1123.8 kg/m3, the mass density (308.15 K, x2 = 0.95) was 1086.5 kg/m3 and the mass density (308.15 K, x2 = 0.9724) was 1056.2 kg/m3. For the same compound, the mass density (308.15 K, x2 = 0.979) was 1044.6 kg/m3.

Work on `CCCCCC[n+]1ccn(C)c1.[I-]` + O yielded a mass density (298.15 K, x1 = 0.0192) of 1060.5 kg/m3, a mass density (298.15 K, x2 = 0.0211) of 1339.3 kg/m3 and a mass density (298.15 K, x2 = 0.0488) of 1337.8 kg/m3. For the same compound, the mass density (298.15 K, x2 = 0.0888) was 1335.6 kg/m3, the mass density (298.15 K, x2 = 0.1888) was 1328.9 kg/m3 and the mass density (298.15 K, x2 = 0.2501) was 1324.5 kg/m3. For the same compound, the mass density (298.15 K, x2 = 0.3026) was 1320.6 kg/m3, the mass density (298.15 K, x2 = 0.3488) was 1317.1 kg/m3 and the mass density (298.15 K, x2 = 0.3976) was 1313.3 kg/m3. It also gave a mass density (298.15 K, x2 = 0.4439) of 1309.5 kg/m3, a mass density (298.15 K, x2 = 0.4989) of 1304.6 kg/m3 and a mass density (298.15 K, x2 = 0.5898) of 1294.8 kg/m3. The mass density (298.15 K, x2 = 0.6438) was 1287.3 kg/m3, the mass density (298.15 K, x2 = 0.8079) was 1245.1 kg/m3 and the mass density (298.15 K, x2 = 0.9004) was 1187.7 kg/m3. For the same compound, the mass density (298.15 K, x2 = 0.9111) was 1177.3 kg/m3, the mass density (298.15 K, x2 = 0.9305) was 1154.9 kg/m3 and the mass density (298.15 K, x2 = 0.9504) was 1125.6 kg/m3. The mass density (308.15 K, x2 = 0.0211) was 1331.4 kg/m3, the mass density (308.15 K, x2 = 0.0488) was 1329.5 kg/m3 and the mass density (308.15 K, x2 = 0.1888) was 1320.2 kg/m3. For the same compound, the mass density (308.15 K, x2 = 0.2501) was 1316.1 kg/m3, the mass density (308.15 K, x2 = 0.3026) was 1312.5 kg/m3 and the mass density (308.15 K, x2 = 0.3488) was 1309.3 kg/m3. For the same compound, the mass density (308.15 K, x2 = 0.3976) was 1305.6 kg/m3, the mass density (308.15 K, x2 = 0.4439) was 1301.8 kg/m3 and the mass density (308.15 K, x2 = 0.4989) was 1296.8 kg/m3. For the same compound, the mass density (308.15 K, x2 = 0.5898) was 1286.6 kg/m3, the mass density (308.15 K, x2 = 0.6438) was 1278.7 kg/m3 and the mass density (308.15 K, x2 = 0.6898) was 1270.3 kg/m3. For the same compound, the mass density (308.15 K, x2 = 0.8079) was 1236.3 kg/m3, the mass density (308.15 K, x2 = 0.9004) was 1180.4 kg/m3 and the mass density (308.15 K, x2 = 0.9111) was 1170.3 kg/m3. For the same compound, the mass density (308.15 K, x2 = 0.9305) was 1148.5 kg/m3.
